According to the supplement of paper PMC5499739:
The full ranking holds about 16,000 sequences; the median of “Z-score” is about -0.37, and the highest 2% start at about 3.1. The list shows a part of the results.

Tested on: RBM10 RRM1-ZnF-RRM2 (GST-tagged construct)
Assay: RNAcompete 7-mer binding Z-score; higher = stronger binding preference
How it was run: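 A designed pool of 241 399 RNAs, each up to 41 nt and transcribed from microarray-derived DNA templates, was used at 1.5 nmol with 20 pmol of GST-tagged RBM10 constructs. The mixture, in 1 ml Hepes pH 7.8 buffer with KCl, NaCl, glycerol, DTT, BSA and glutathione Sepharose beads, was held 30 min at 4°C and then washed four times for 2 min at 4°C. Bound RNA was read out by microarray hybridisation, and enrichment of each heptamer motif was scored as a one-sided Z-score over the probes carrying it.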

Sequence	RNAcompete 7-mer binding Z-score
CCAGGUC	-0.446
AUCAACA	-0.278
GGGUAUA	2.44
UCAAAAU	-0.541
CGCAACG	-0.0889
GUGACGU	0.683
GCUUCCC	-0.748
AGUACAC	-0.165
UUACUCC	-0.795
UGAAGCA	0.246
AACAGUC	-0.526
AAACUCU	-0.876
UCAUAUC	-0.613
CGAAAGG	1.98
AAUCCCG	-0.657
UAUGAAA	-0.246
UAGUGCA	0.21
GGGAUGA	3.59
GUAGUAU	-0.176
UUUUAUC	-0.763
AUGACGC	-0.592
UCUGGGA	0.45
UUCUUUG	-0.621

Sequence	RNAcompete 7-mer binding Z-score
CGGUCCC	-0.34
ACUUAGU	-0.479
AAGAUGU	0.13
UCGCGCC	-0.683
ACAUGAA	0.101
CUCUGCG	-0.916
GGAUUUG	0.796
CUGGUGU	0.0677
CUUCCAG	-0.497
CUUACAC	-0.708
GCCAGAU	-0.318
UCCACCG	-0.635
UUGUCCC	-0.701
GAGUAAC	0.122
GUGAUAA	0.261
GUCUUCA	-0.617
CCCGGCG	-0.0925
GAUCUCA	-0.643
UCUUACG	-0.821
CGUUAAU	-0.679
AGCGAGC	2.66
GAAGCCC	-0.774
GUAUUUG	-0.147

Sequence	RNAcompete 7-mer binding Z-score
GUCUUGG	-0.144
AUGACAA	-0.0707
GGGUCCA	0.771
UGUUAAU	-0.617
UAGCCAG	-0.0452
CGGGUGG	3.24
CUAUCAU	-0.675
ACUCACG	-0.708
CAGGGAC	1.6
UCCACAA	-0.508
UGACUGG	0.887
ACCUGAU	-0.938
AUAUCGG	0.264
GGACGCC	-0.154
GUUUCAG	-0.169
AGUGCAU	0.104
ACAAGUC	-0.643
UCAAGUC	-0.395
UUGGCUC	-0.526
CGAGCUA	-0.14
UUGAAAC	-0.566
CGGAGCG	1.45
AUUGGGA	2.99

Sequence	RNAcompete 7-mer binding Z-score
GCGUAAA	0.111
UUAUACU	-0.69
AUUAGCC	-0.777
UAGCUGC	-0.595
CCCUCAA	-0.737
UUACCCU	-0.846
AACCCUG	-0.639
CGUAUGG	1.12
UCAUCGA	-0.675
GUGGCCU	-0.0998
AGACUAA	-0.296
UCGGCAA	0.144
ACAGGAA	1.47
CAAUUGA	-0.158
GCUUCCU	-0.741
UCUGGGG	0.894
GCAGCUA	-0.195
ACUGUCG	-0.643
AAGGGCA	3.44
AGGAAAU	1.45
CAGGUAG	2.68
GGUCCAA	0.239
AGGGUGU	3.03

Sequence	RNAcompete 7-mer binding Z-score
CACAUAG	-0.147
UAACUGG	0.294
CAUGGGU	2.58
CAGAUCA	-0.417
UCACACC	-0.77
CUGGUAU	-0.3
AGACCUU	-1.19
ACAAAUU	-0.646
CCUCAUC	-0.81
GAUCCGU	-0.639
GGGCUUA	0.479
UCAGGAG	1.03
GAUUUGG	1.47
CGUCCGG	-0.475
CGCGGCA	-0.0925
UUUACCG	-0.675
AACCAUG	-0.0598
UUACCGG	-0.0561
UUAUGGG	1.64
GGGCCAA	0.818
CUAGCUG	-0.61
UGGGAUG	3.22
CCGGUCC	-0.679

Sequence	RNAcompete 7-mer binding Z-score
GCGGACU	0.213
AACCUUA	-0.799
GGUAUCA	1.17
CAGUGUU	-0.526
AAGCUAC	-0.326
UACAGGG	2.34
AGAAAAA	0.162
CCCAUAA	-0.81
CGAUCGU	-0.541
AAUAGUG	0.315
GGCUAAU	0.115
GAACGAC	-0.133
GGGCUGU	0.902
UGUGGGU	2.9
AGGAGGC	1.72
AAACCCG	-0.828
CUUCGAG	-0.606
UCGUAGU	-0.318
ACAUACA	-0.398
GAAUUGA	0.286
GUAUAGG	2.32
GCGCUUG	-0.559
CGGGCAC	0.902

Sequence	RNAcompete 7-mer binding Z-score
CCAUUGU	-0.672
CCAUCUC	-0.905
ACGUUUA	-0.817
GAGGGGA	3.29
CAUCCAC	-0.69
AGAGUGG	2.77
GCACUGU	-0.442
UUCGUAA	-0.613
UAUCUAA	-0.715
CCAUGGU	-0.0197
GUAACAG	1.3
UAACUGU	-0.584
UGCAUAU	-0.49
UUUGGGC	0.833
CCUCGUU	-0.701
AUCGCGG	0.0131
GCCGAAU	-0.777
CGUUUUG	-0.497
CCUGAGC	-0.602
GGCGCGA	0.599
AGACUAC	-0.901
AUUCUAA	-0.744
AUCUGCG	-0.621

Sequence	RNAcompete 7-mer binding Z-score
AGGUCGG	1.58
GGAGGUC	1.9
CAAACUG	-0.446
UGUGAGU	0.559
UGGUGUC	0.348
ACGGAUG	1.44
GAUCGGG	2.09
GUGGCCG	0.785
CGCGAGU	-0.347
GUCAGGC	0.625
AACUCAG	-0.431
CCCUGAC	-0.741
UAUAUCA	-0.639
ACGCGGU	0.0641
ACCAAUG	0.0641
UCAUCUG	-0.821
GCACAGA	0.0823
CGGGAUG	2.31
GAGACAC	-0.0197
GUCUUUU	-0.581
AAUACAU	-0.34
UAAAACG	0.133
CACGUUG	-0.26
